US20140235520A1, “Perfume Compositions” (Givaudan Nederland Services B.V., priority 2005, published 2014)
At least one read-out could not be matched to a standard name with certainty. Some compounds share one wording; it may come from a single statement. Some of these results come from one statement about several compounds together. For at least one compound, name, drawing or mass did not settle the structure.

The compounds below were run on Escherichia coli ATCC 10536 (assay: Standardised biofilm detachment assay (96 well microtitre plate, crystal violet OD540) in quarter strength GPC base Formula A). Settings: ingredient as 1 of 4 equal-weight ingredients (other 3 Group B), perfume 0.25% w/w in quarter strength GPC base Formula A, 20 min 21° C.; flavour ingredients classed in toothpaste base.
Format: cell-based

Row | SMILES | Group (PDV class: active / non-active / antagonist to biofilm detachment)
1 | CC1=CCC(C(C)CC2CCCC2=O)CC1 (stereo not drawn) [2-[2-(4-methylcyclohex-3-en-1-yl)propyl]cyclopentanone] | A (Group A materials that assist biofilm detachment are defined as those having a PDV (as defined above) of at least 9)
2 | CCOC(=O)C1C2C=CC(C2)C1C(C)C (stereo not drawn) [ethyl 3-(1-methylethyl)bicyclo[2.2.1]hept-5-ene-2-carboxylate] | A (Group A materials that assist biofilm detachment are defined as those having a PDV (as defined above) of at least 9)
3 | CC(C)C1CCC(CO)CC1 (stereo not drawn) [[4-(1-methylethyl)cyclohexyl]methanol] | A (Group A materials that assist biofilm detachment are defined as those having a PDV (as defined above) of at least 9)
4 | O=C1CCCCCCCCCCCCCCCO1 [cyclohexadecanolide] | A (Group A materials that assist biofilm detachment are defined as those having a PDV (as defined above) of at least 9)
5 | CCOC(=O)c1ccccc1C(=O)OCC [diethyl benzene-1,2-dicarboxylate] | B (Group B materials that are non-active to biofilm detachment are defined as those having a PDV (as defined above) of less than 9 and greater than 0)
6 | CC1CCC(C(C)C)C(O)C1 (stereo not drawn) [5-methyl-2-(1-methylethyl)cyclohexanol] | B (Group B materials that are non-active to biofilm detachment are defined as those having a PDV (as defined above) of less than 9 and greater than 0)
7 | CCOCCOCCO [2-{[2-(ethyloxy)ethyl]oxy}ethanol] | B (Group B materials that are non-active to biofilm detachment are defined as those having a PDV (as defined above) of less than 9 and greater than 0)
8 | CC(=O)CCc1ccc(O)cc1 [Raspberry ketone 10% CARB AA 2422, Raspberry ketone] | B (Group B materials that are non-active to biofilm detachment are defined as those having a PDV (as defined above) of less than 9 and greater than 0)
9 | CCCCCOC(=O)CCCCC [amyl caproate DQ, amyl caproate] | A (Group A materials that assist biofilm detachment are defined as those having a PDV (as defined above) of at least 9)
10 | CCC(=O)/C=C/C1C(C)=CCCC1(C)C (stereo not drawn) [(1E)-1-(2,6,6-trimethylcyclohex-2-en-1-yl)pent-1-en-3-one] | C (Group C materials that are antagonistic to biofilm detachment are defined as those having a PDV (as defined above) of less than or equal to 0)
11 | CC(C)=CCCC(C)CCO (stereo not drawn) [3,7-dimethyloct-6-en-1-ol] | B (Group B materials that are non-active to biofilm detachment are defined as those having a PDV (as defined above) of less than 9 and greater than 0)
12 | O=C1CCCCCCCCCCCC(=O)OCCO1 [1,4-dioxacycloheptadecane-5,17-dione] | A (Group A materials that assist biofilm detachment are defined as those having a PDV (as defined above) of at least 9)
13 | CC(C)(O)CCCC1=CCC(C=O)CC1 (stereo not drawn) [4-(4-hydroxy-4-methylpentyl)cyclohex-3-ene-1-carbaldehyde] | C (Group C materials that are antagonistic to biofilm detachment are defined as those having a PDV (as defined above) of less than or equal to 0)
14 | CCCCCCCCCCCCCC(=O)OC(C)C [1-methylethyl tetradecanoate] | A (Group A materials that assist biofilm detachment are defined as those having a PDV (as defined above) of at least 9)
15 | CC(=O)OC1CCC(C(C)(C)C)CC1 (stereo not drawn) [4-(1,1-dimethylethyl)cyclohexyl acetate] | B (Group B materials that are non-active to biofilm detachment are defined as those having a PDV (as defined above) of less than 9 and greater than 0)
16 | CCCCCCCCCC/C=C/C#N [(2E)-tridec-2-enenitrile] | A (Group A materials that assist biofilm detachment are defined as those having a PDV (as defined above) of at least 9)
17 | CCCCCCCCCC(C)C=O (stereo not drawn) [2-methylundecanal] | A (Group A materials that assist biofilm detachment are defined as those having a PDV (as defined above) of at least 9)
18 | C=C(C)C1CC=C(C)C(=O)C1 (stereo not drawn) [Carvone] | C (Group C materials that are antagonistic to biofilm detachment are defined as those having a PDV (as defined above) of less than or equal to 0)
19 | O=C1CCCC=CCCCCCCCCCC1 [cyclohexadec-5-en-1-one] | B (Group B materials that are non-active to biofilm detachment are defined as those having a PDV (as defined above) of less than 9 and greater than 0)
20 | OC/C=C/c1ccccc1 [cinnamic alcohol] | A (Group A materials that assist biofilm detachment are defined as those having a PDV (as defined above) of at least 9)
21 | CC12CCC(CC1)C(C)(C)O2 [eucalyptol] | A (Group A materials that assist biofilm detachment are defined as those having a PDV (as defined above) of at least 9)
22 | CC(=O)OCCC(C)C [isoamyl acetate] | A (Group A materials that assist biofilm detachment are defined as those having a PDV (as defined above) of at least 9)
23 | CC(C)=CCCC(C)=CC=O [citral] | A (Group A materials that assist biofilm detachment are defined as those having a PDV (as defined above) of at least 9)
24 | CC1=CCC(=C(C)C)CC1 [1-methyl-4-(1-methylethylidene)cyclohex-1-ene] | B (Group B materials that are non-active to biofilm detachment are defined as those having a PDV (as defined above) of less than 9 and greater than 0)
25 | C=CC(C)(O)CCC=C(C)C (stereo not drawn) [3,7-dimethylocta-1,6-dien-3-ol] | C (Group C materials that are antagonistic to biofilm detachment are defined as those having a PDV (as defined above) of less than or equal to 0)
26 | CCCCCCCCC(C)C#N (stereo not drawn) [2-methyldecanenitrile] | A (Group A materials that assist biofilm detachment are defined as those having a PDV (as defined above) of at least 9)
27 | CC(=O)OCC(COC(C)=O)OC(C)=O [2-(acetyloxy)-1-[(acetyloxy)methyl]ethyl acetate] | B (Group B materials that are non-active to biofilm detachment are defined as those having a PDV (as defined above) of less than 9 and greater than 0)
28 | CCCCCCOC(=O)c1ccccc1O [hexyl 2-hydroxybenzoate] | B (Group B materials that are non-active to biofilm detachment are defined as those having a PDV (as defined above) of less than 9 and greater than 0)
29 | CC(=O)OCc1ccccc1 [phenylmethyl acetate] | C (Group C materials that are antagonistic to biofilm detachment are defined as those having a PDV (as defined above) of less than or equal to 0)
30 | OCCc1ccccc1 [2-phenylethanol] | C (Group C materials that are antagonistic to biofilm detachment are defined as those having a PDV (as defined above) of less than or equal to 0)
